Tests used:
[1] = test system: Msmeg in stationary phase; assay: Growth phase studies; type: cell-based, Mycobacterium smegmatis; details: 30 minutes; FIG. 13C
heat-killed Msmeg cells = assay: DMN-Tre labeling of heat-killed Msmeg; details: culture filtrates from live Msmeg plus heat-killed cells plus DMN-Tre, flow cytometry; FIG. 13D
Description: Current microscopy-based methods for TB diagnosis cannot distinguish live from dead mycobacteria. Given that DMN-Tre labeling appears to be of metabolic nature and depend on mycomembrane biosynthesis, it was hypothesized that the methods of the present disclosure would be specific for live bacteria. Indeed, labeling was abrogated by heat killing Msmeg (FIGS. 13A and 13B). […] An interesting question is whether active Ag85 protein released by live cells can cause mycomembrane labeling of nearby dead cells in the presence of DMN-Tre. To answer this question, the culture filtrates from live Msmeg were incubated in growth phase with heat-killed Msmeg cells in the presence of DMN-Tre and analyzed fluorescence of the dead cells by flow cytometry.
Following metabolic labeling (and after fixation for Mtb cells), cells were harvested by centrifugation (3 min, 3,300×g), washed (2×500 microliter (μL) PBS) and resuspended in 300 μL PBS. Fluorescence measurements were taken in 5-mL culture tubes (FisherSci, 14-959A) suitable for flow cytometry. […] This instrument is equipped with a 405 nm violet laser and 488 nm blue laser (for Aqua Amine and FITC channels, respectively) both used to detect DMN-Tre fluorescence. Fluorescence data was obtained for 100,000 cells per sample and processed using FlowJo (Tree Star) software. […]

## CN(C)c1ccc2c3c(cccc13)C(=O)N(C[C@H]1O[C@H](O[C@H]3O[C@H](CO)[C@@H](O)[C@H](O)[C@H]3O)[C@H](O)[C@@H](O)[C@@H]1O)C2=O [DMN-Tre, 4-N,N-dimethylamino-1,8-naphthalimide-conjugated trehalose]
[1]
  labeling in stationary phase versus log phase: continue to label with DMN-Tre, albeit at lower intensity levels than Msmeg in log phase
heat-killed Msmeg cells
  trans-labeling of dead cells by culture filtrates from live Msmeg: no such trans-labeling was observed above the level of autofluorescence

Source: patent US11884956B2, “Methods for detecting mycobacteria with solvatochromic dye conjugates” (priority 2016, dated 2024)
